A lower IC50 marks a more sensitive line; a limit (>, <) means that the fit lies beyond the doses tested. AUC is the area under the same curve over the 256-fold range up to the top dose, as a fraction; the more sensitive the line, the further below 1. A top dose marked as inferred was derived from the fitted curves, not read from the paper.
Legend:
Assay in all cases: Viability of human cancer cell lines after 72 h of drug (GDSC screen)
BMS-509744 = compound: COc1cc(C)c(Sc2cnc(NC(=O)c3ccc(CNC(C)C(C)(C)C)cc3)s2)cc1C(=O)N1CCN(C(C)=O)CC1 [BMS-509744]; conditions: top dose 10.24 µM; top dose inferred
Method: (§1)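 Human cancer cell lines in 384-well plates, medium with 10% serum, drug for 72 h over a 256-fold dose range (nine 2-fold or five 4-fold steps up to the top dose). Adherent lines were fixed and stained with the nucleic acid dye Syto60, suspension lines read with resazurin; signal relative to control wells, capped at 0 and 100%. One two-parameter sigmoid per drug and line, fitted in a mixed model over all curves with the slope shared within a line.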

PFI-1 = compound: COc1ccccc1S(=O)(=O)Nc1ccc2c(c1)CN(C)C(=O)N2 [PFI-1]; conditions: top dose 10 µM; top dose inferred
Method: as §1

GSK-1904529A = compound: CCc1cc(Nc2nccc(-c3c(-c4ccc(OC)c(C(=O)Nc5c(F)cccc5F)c4)nc4ccccn34)n2)c(OC)cc1N1CCC(N2CCN(S(C)(=O)=O)CC2)CC1 [GSK-1904529A]; conditions: top dose 1.024 µM; top dose inferred
Method: as §1

NG-25 = compound: CCN1CCN(Cc2ccc(NC(=O)c3ccc(C)c(Oc4ccnc5[nH]ccc45)c3)cc2C(F)(F)F)CC1 [NG-25]; conditions: top dose 10.24 µM; top dose inferred
Method: as §1

Tipifarnib = compound: Cn1cncc1[C@@](N)(c1ccc(Cl)cc1)c1ccc2c(c1)c(-c1cccc(Cl)c1)cc(=O)n2C [Tipifarnib]; conditions: top dose 16 µM; top dose inferred
Method: as §1

Cell Line: COLO-800 (melanoma, adherent)
- AUC (BMS-509744): 0.984
- IC50 (BMS-509744): > 10.2 µM
- AUC (PFI-1): 0.8
- IC50 (PFI-1): 4.67 µM
- AUC (GSK-1904529A): 0.987
- IC50 (GSK-1904529A): > 1.02 µM
- AUC (NG-25): 0.953
- IC50 (NG-25): > 10.2 µM
- AUC (Tipifarnib): 0.909
- IC50 (Tipifarnib): > 16 µM

Cell Line: COLO-824 (breast, adherent)
- AUC (BMS-509744): 0.986
- IC50 (BMS-509744): > 10.2 µM
- AUC (PFI-1): 0.965
- IC50 (PFI-1): > 10 µM
- AUC (GSK-1904529A): 0.984
- IC50 (GSK-1904529A): > 1.02 µM
- AUC (NG-25): 0.881
- IC50 (NG-25): > 10.2 µM
- AUC (Tipifarnib): 0.843
- IC50 (Tipifarnib): 11.7 µM

Cell Line: COLO-829 (melanoma, adherent)
- AUC (BMS-509744): 0.964
- IC50 (BMS-509744): > 10.2 µM
- AUC (PFI-1): 0.928
- IC50 (PFI-1): > 10 µM
- AUC (GSK-1904529A): 0.97
- IC50 (GSK-1904529A): > 1.02 µM
- AUC (NG-25): 0.881
- IC50 (NG-25): > 10.2 µM
- AUC (Tipifarnib): 0.835
- IC50 (Tipifarnib): > 16 µM

Cell Line: COR-L88 (small cell lung carcinoma, adherent)
- AUC (BMS-509744): 0.978
- IC50 (BMS-509744): > 10.2 µM
- AUC (PFI-1): 0.938
- IC50 (PFI-1): > 10 µM
- AUC (GSK-1904529A): 0.977
- IC50 (GSK-1904529A): > 1.02 µM
- AUC (NG-25): 0.925
- IC50 (NG-25): > 10.2 µM
- AUC (Tipifarnib): 0.858
- IC50 (Tipifarnib): > 16 µM

Cell Line: COR-L95 (small cell lung carcinoma, adherent)
- AUC (BMS-509744): 0.894
- IC50 (BMS-509744): > 10.2 µM
- AUC (PFI-1): 0.965
- IC50 (PFI-1): > 10 µM
- AUC (GSK-1904529A): 0.986
- IC50 (GSK-1904529A): > 1.02 µM
- AUC (NG-25): 0.959
- IC50 (NG-25): > 10.2 µM
- AUC (Tipifarnib): 0.953
- IC50 (Tipifarnib): > 16 µM

Cell Line: COR-L279 (small cell lung carcinoma, suspension)
- AUC (BMS-509744): 0.931
- IC50 (BMS-509744): > 10.2 µM
- AUC (PFI-1): 0.92
- IC50 (PFI-1): > 10 µM
- AUC (GSK-1904529A): 0.974
- IC50 (GSK-1904529A): > 1.02 µM
- AUC (NG-25): 0.881
- IC50 (NG-25): 8.68 µM
- AUC (Tipifarnib): 0.777
- IC50 (Tipifarnib): 5.74 µM

Cell Line: CP66-MEL (melanoma, adherent)
- AUC (BMS-509744): 0.959
- IC50 (BMS-509744): > 10.2 µM
- AUC (PFI-1): 0.856
- IC50 (PFI-1): 9.88 µM
- AUC (GSK-1904529A): 0.983
- IC50 (GSK-1904529A): > 1.02 µM
- AUC (NG-25): 0.97
- IC50 (NG-25): > 10.2 µM
- AUC (Tipifarnib): 0.763
- IC50 (Tipifarnib): 6.54 µM

Cell Line: CPC-N (small cell lung carcinoma, suspension)
- AUC (BMS-509744): 0.915
- IC50 (BMS-509744): > 10.2 µM
- AUC (PFI-1): 0.843
- IC50 (PFI-1): 8.1 µM
- AUC (GSK-1904529A): 0.967
- IC50 (GSK-1904529A): > 1.02 µM
- AUC (NG-25): 0.923
- IC50 (NG-25): > 10.2 µM
- AUC (Tipifarnib): 0.797
- IC50 (Tipifarnib): 8.36 µM

Cell Line: CTB-1 (B-cell lymphoma, suspension)
- AUC (BMS-509744): 0.884
- IC50 (BMS-509744): > 10.2 µM
- AUC (PFI-1): 0.825
- IC50 (PFI-1): 9.21 µM
- AUC (GSK-1904529A): 0.979
- IC50 (GSK-1904529A): > 1.02 µM
- AUC (NG-25): 0.74
- IC50 (NG-25): 4.08 µM
- AUC (Tipifarnib): 0.707
- IC50 (Tipifarnib): 4.82 µM

Cell Line: CTV-1 (acute myeloid leukaemia, suspension)
- AUC (BMS-509744): 0.847
- IC50 (BMS-509744): 5.4 µM
- AUC (PFI-1): 0.951
- IC50 (PFI-1): > 10 µM
- AUC (GSK-1904529A): 0.982
- IC50 (GSK-1904529A): > 1.02 µM
- AUC (NG-25): 0.214
- IC50 (NG-25): 0.117 µM
- AUC (Tipifarnib): 0.689
- IC50 (Tipifarnib): 2.98 µM

Cell Line: CW-2 (large intestine, adherent)
- AUC (BMS-509744): 0.989
- IC50 (BMS-509744): > 10.2 µM
- AUC (PFI-1): 0.973
- IC50 (PFI-1): > 10 µM
- AUC (GSK-1904529A): 0.989
- IC50 (GSK-1904529A): > 1.02 µM
- AUC (NG-25): 0.938
- IC50 (NG-25): > 10.2 µM
- AUC (Tipifarnib): 0.989
- IC50 (Tipifarnib): > 16 µM

Cell Line: Calu-6 (lung adenocarcinoma, adherent)
- AUC (BMS-509744): 0.973
- IC50 (BMS-509744): > 10.2 µM
- AUC (PFI-1): 0.973
- IC50 (PFI-1): > 10 µM
- AUC (GSK-1904529A): 0.98
- IC50 (GSK-1904529A): > 1.02 µM
- AUC (NG-25): 0.916
- IC50 (NG-25): > 10.2 µM
- AUC (Tipifarnib): 0.531
- IC50 (Tipifarnib): 1.23 µM

From the supplement of paper PMC4967469
